The campaign covered roughly 310,000 compounds. About 14,000 (4.5%) showed an effect of 50% or more. Effects have a minus sign here. This is one part of the list.
These compounds were tested against human ether-à-go-go-related gene (hERG) potassium channel (human, UniProt Q12809) (assay: primary screen, population patch clamp on CHO cells stably expressing hERG).
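Note: peak tail current of the secondary pulse compared with the same well before compound.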

human ether-à-go-go-related gene (hERG) potassium channel, sequence (Q12809 whole entry, looked up): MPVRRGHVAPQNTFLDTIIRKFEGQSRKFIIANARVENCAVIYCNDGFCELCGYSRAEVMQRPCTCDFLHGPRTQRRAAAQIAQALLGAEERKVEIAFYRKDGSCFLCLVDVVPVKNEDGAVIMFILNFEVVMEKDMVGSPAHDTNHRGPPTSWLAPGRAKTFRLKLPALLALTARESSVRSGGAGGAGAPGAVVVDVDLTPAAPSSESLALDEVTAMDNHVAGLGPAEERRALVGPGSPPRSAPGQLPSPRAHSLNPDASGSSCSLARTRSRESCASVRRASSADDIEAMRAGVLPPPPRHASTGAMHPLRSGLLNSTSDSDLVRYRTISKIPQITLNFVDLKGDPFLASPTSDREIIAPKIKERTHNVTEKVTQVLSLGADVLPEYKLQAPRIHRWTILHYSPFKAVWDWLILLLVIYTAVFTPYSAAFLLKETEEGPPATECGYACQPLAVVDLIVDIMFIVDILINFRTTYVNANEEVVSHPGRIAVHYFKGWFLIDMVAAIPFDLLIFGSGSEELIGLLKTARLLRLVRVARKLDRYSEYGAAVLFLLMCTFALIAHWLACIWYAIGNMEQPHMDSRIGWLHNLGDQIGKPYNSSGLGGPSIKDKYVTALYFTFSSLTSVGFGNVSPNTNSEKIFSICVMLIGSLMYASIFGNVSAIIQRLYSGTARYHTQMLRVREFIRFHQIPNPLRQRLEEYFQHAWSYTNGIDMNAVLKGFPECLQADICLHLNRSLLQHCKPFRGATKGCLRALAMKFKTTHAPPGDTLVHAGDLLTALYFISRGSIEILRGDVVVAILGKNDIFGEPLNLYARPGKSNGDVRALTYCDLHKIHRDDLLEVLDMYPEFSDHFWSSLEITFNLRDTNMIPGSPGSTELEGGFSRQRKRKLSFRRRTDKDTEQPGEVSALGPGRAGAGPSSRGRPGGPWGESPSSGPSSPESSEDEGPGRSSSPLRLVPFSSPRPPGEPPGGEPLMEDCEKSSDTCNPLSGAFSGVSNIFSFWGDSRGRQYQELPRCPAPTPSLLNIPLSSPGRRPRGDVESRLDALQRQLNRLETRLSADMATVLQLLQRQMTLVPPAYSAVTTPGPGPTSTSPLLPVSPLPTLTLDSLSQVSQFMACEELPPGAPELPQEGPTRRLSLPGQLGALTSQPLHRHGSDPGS

SMILES | hERG current change (%, negative = inhibition) at 10uM [%]
CC1Cc2ccccc2N1C(=O)CSc1ccccc1 (centres unmarked) | -5.94
O=C(NCc1cccc(F)c1)c1cccc(OC2CCN(C(=O)C3CC3)CC2)c1 | -23.2
O=C(O)c1cccnc1SC1CC(=O)N(c2ccccc2)C1=O (centres unmarked) | 32.4
Cc1c(NC(=O)CCC2CCCCC2)cc(C(=O)N2CCOCC2)cc1[N+](=O)[O-] | -10.2
CCC(C)C(=O)Nc1nc(C)c(-c2csc(Nc3ccccc3OC)n2)s1 (centres unmarked) | 2.7
c1cnc(NC2CCCCCC2)nc1 | 0.195
Cc1[nH]c2ccccc2c1C(=O)C(=O)N1CCN(c2ccccc2)CC1 | -14
COc1ccc(OC)c(N(CC(=O)N2CCC(C)CC2)S(=O)(=O)c2ccc(OC)c(OC)c2)c1 | -0.525
CN(C)C(CNC(=O)CCc1nc2cc(Cl)ccc2n(Cc2ccccc2)c1=O)c1ccccc1 (centres unmarked) | -81.1
CCN(CC(=O)NCc1cccs1)C(=O)c1cccc(S(=O)(=O)NCc2ccccc2)c1 | -48.7
Nc1ncc2c(n1)-c1ccccc1CC2 | 8.55
COc1ccccc1NS(=O)(=O)c1ccc(OC)c(OC)c1 | -2.77
CCOc1ccc(-c2nc(CN(Cc3ccccc3)C[C@@H]3CCC(=O)N3)c(C)o2)cc1 | -22.2
CCC1CCCCN1CCCNC(=O)c1ccc2c(c1)N(Cc1ccc(F)cc1)C(=O)c1ccccc1S2=O (centres unmarked) | -30.2
Cc1cccc(Cn2c(N3CCCCC3C)nc3c2c(=O)[nH]c(=O)n3C)c1 (centres unmarked) | -57
CCCCOc1c(C(=O)Nc2ccccc2)nnn1-c1ccccc1 | 10.7
CCC12CN3CCN(CC(C3)/C1=N\NC(=O)c1ccc(F)cc1)C2 | 13.4
CC(C)c1ccc(C2(O)C(=O)Nc3cc(Br)ccc32)c(O)c1 (centres unmarked) | 20.1
O=C(NCCCN1CCCCC1)c1ccc(CS(=O)c2ccc(F)cc2)o1 (centres unmarked) | -0.35
CC(C)c1ccc(Cc2nnc(NCCCO)[nH]c2=O)cc1 | 12.8
CNC(=S)N1CCn2cccc2C1c1cccnc1 (centres unmarked) | 6.45
COc1ccc(C(=O)NC23CC4CC(CC(C4)C2)C3)cc1OC | 17.4
C=CCOC(=O)C1=C[C@@H](c2ccc3c(c2)OCO3)C[C@@H](OCc2ccc(CO)cc2)O1 | 5.22

SMILES | hERG current change (%, negative = inhibition) at 10uM [%]
COc1cc2cc(CN(CCO)C(=O)c3cccs3)c(=O)[nH]c2cc1OC | -1.16
Cc1cccc(C)c1NC(=O)C1CCCN1S(=O)(=O)c1ccccc1 (centres unmarked) | 4.4
CC(C)CNC(=S)NC(=O)c1csc([N+](=O)[O-])c1 | 9.85
CC(=O)Nc1cnn(Cc2ccc(Br)cc2)c1 | 5.7
CCOC(=O)C1CCN(C(=O)COc2ccc3c(c2)OCO3)CC1 | 1.91
COc1ccccc1Nc1nc(N)nc(CN2CCCCC2)n1 | -54.9
NS(=O)(=O)c1ccc(NNC(=O)c2ccc(F)cc2F)cc1 | 10.8
O=C1C2C3C=CC(C3)C2C(=O)N1CCCCCCN1C(=O)C2C3C=CC(C3)C2C1=O (centres unmarked) | 21.2
O=C(COc1cc(Cl)c(Cl)cc1Cl)Nn1cnnc1 | -5.37
Cc1cccc(NC(=O)c2ccccc2NC(=O)C2CCCCC2)c1C | 1.16
O=C(c1ccc(Cl)cc1)N1CCC(O)(CSc2ccccc2)CC1 | -38.1
CC1CCN(C(=O)Cn2c3ccc(F)cc3c3nc4n(c(=O)c32)CCCS4)CC1 | 11.1
CC(C)Sc1cc(N2CCCC2)nc(-c2ccccc2Cl)n1 | 5.42
O=C1C2CCc3ccccc3C2N1c1ccccc1 (centres unmarked) | -1.68
Cc1ccc(C)c(N2C(=O)c3cc(N4CCOCC4)c([N+](=O)[O-])cc3C2=O)c1 | 6.65
CCOc1ccc(NC(=O)c2c(O)[nH]c(=O)[nH]c2=O)cc1 | 7.25
O=C(CCCCC(=O)NC1CCCC1)NC1CCCC1 | 5.31
CCN(CC)CCCCCC(=O)Nc1ccccc1C(=O)Nc1ccccc1 | -55.8
CC(=O)CC1(OC(C)=O)C(=O)N(C)c2ccccc21 (centres unmarked) | 1.45
CCOC(=O)N1CCN(S(=O)(=O)c2ccc(C(=O)Nc3nnc(CC)o3)cc2)CC1 | 2.69
COC(=O)c1c(NC(=O)CN2CCN(c3ccccc3OC)CC2)c2cc(C)ccc2n1C | 7.82
Cc1ccc(-c2cc(-c3ccccc3)no2)c(O)c1 | 17.4
C=CCN(Cc1cn(C)nc1-c1cccc(Cl)c1)C1CCS(=O)(=O)C1 (centres unmarked) | 6.11

SMILES | hERG current change (%, negative = inhibition) at 10uM [%]
COc1ccc(-c2cc3c(=O)n(CC(=O)NCc4ccccc4F)ncn3n2)cc1 | 18.8
CCOC(=O)C1(CCOc2ccccc2)CCN(Cc2ccc(NC(C)=O)cc2)CC1 | -79.3
Cc1ccc(CN(N=Nc2nonc2N)c2nonc2N)c(C)c1 | 9.68
Cc1cc2c(c(=O)o1)C(c1cccs1)C(C#N)=C(N)O2 (centres unmarked) | 4
COc1ccccc1-n1c(C)c2c(OC)cccc(=O)c2c1C | -8.43
Nc1n[nH]c(=S)n1-c1ccc(Cl)cc1 | 19.3
C[C@@]12C(=O)N(CCc3c[nH]c4ccccc34)CC(=O)N1[C@H]1c3ccccc3OC[C@@H]1[C@@H]2c1ccccc1 | -0.34
Cc1ccc(C(=O)Oc2ccc(-c3nnco3)cc2)o1 | 0.0336
CCCC[C@@H]1CNC(=S)N1CCc1cccc2ccccc12 | 2
COc1nccnc1NS(=O)(=O)c1ccc(N/C=C2\CCCCC2=O)cc1 | 16.6
CCc1ccc(C2=NN(CCC(=O)NCC3CCCO3)C(=O)CC2)cc1 (centres unmarked) | 12.8
Cc1nc(N2CCN(S(=O)(=O)c3ccc(F)cc3)CC2)c2c(C)c(C)sc2n1 | -6.58
COC(=O)c1sccc1NC(=O)Nc1ccc(OC)c(OC)c1 | -40.7
COc1ccc(S(=O)(=O)N2CC(C)N(C(=O)N(C)C)C2C(C)C)cc1 (centres unmarked) | 21.3
COc1ccc(C(=O)COC(=O)CNC(=O)c2ccc(OC)cc2)cc1 | -52.6
COc1cc(Br)cc(/C=C/c2ccc3cccc(O)c3n2)c1OC | 11.4
c1csc(-c2csc3nc(CN4CCOCC4)nc(NCc4ccc5c(c4)OCO5)c23)c1 | -21.5
Cc1cc(C(C)(C)C)cc(C)c1CC1=NCCN1.Cl | -7.46
Cc1cccc(OCC(=O)N(Cc2ccc(N(C)C)cc2)C2CCS(=O)(=O)C2)c1 (centres unmarked) | 3.86
COc1ccc(NS(=O)(=O)c2ccc(Cl)s2)cn1 | 7.99
Cc1[nH]c(=O)[nH]c(=O)c1S(=O)(=O)N1CCC(C(=O)N2CCN(c3cccc(C(F)(F)F)c3)CC2)CC1 | 31.2
CCOC(=O)N1CCN(C(=O)N2CCOCC2)CC1 | -12.6
CCc1nnc(NC(=O)CSc2nnc(-c3ccccc3O)n2-c2ccc(C)cc2C)s1 | 7.78

SMILES | hERG current change (%, negative = inhibition) at 10uM [%]
Nc1nc(-c2ccc(-n3nncc3-c3ccco3)cc2)cs1 | -4.01
CSc1nc2ncc(C(=O)O)c(N)n2n1 | 8.85
COc1ccc(C(=O)CSc2nc(N)nc(SC)c2C#N)cc1 | -3
COc1cc(OC)cc(C(=O)NCC2CCCN(C(=O)c3csc(C(C)C)n3)C2)c1 (centres unmarked) | -3.67
CCc1ccc(C(=O)OCC(=O)Nc2cccc(S(=O)(=O)NC3=NCCCCC3)c2)cc1 | -13.1
C=CCN(C(=O)CCS(=O)(=O)c1cccc2nsnc12)c1ccccc1 | -11.5
Nc1c(N2CCCCC2)c2ccccc2oc1=O | -7.42
O=C(COC(=O)C1=COCCO1)Nc1ccc(OC(F)F)cc1 | -1.13
COC(=O)C1=CN(c2cc(C)cc(C)c2)C=C(C(=O)OC)C1c1ccc(OC)c(O)c1 | 10.9
COc1cccc(C(=O)NCC(c2cccs2)N2CCOCC2)c1 (centres unmarked) | -1.76
O=C(CN(Cc1ccc(Cl)cc1)C(=O)c1csnn1)NCc1ccc(F)cc1 | -66.6
Cc1cccc(C(=O)N2CCCC(Nc3ccc(C(C)C)cc3)C2)n1 (centres unmarked) | 0.95
CN(C)/C=C(\C#N)C(=O)c1cccc(Oc2ccc(Br)cc2)c1 | -28
COc1ccc(NC(=O)N2CCOCC2)cc1 | 18.4
COc1ccc(CNc2ccc(C)cc2)cc1Br | 14.4
COc1ccc(-c2noc(CN(C(=O)c3cccs3)C(C)C)n2)cc1 | -28.6
CN1CCN(S(=O)(=O)c2ccc(NC(=O)c3cccc(S(=O)(=O)N4CCCC4)c3)cc2)CC1 | -3.81
O=C(CCNC(=O)c1ccccc1Cl)Nc1cc(S(=O)(=O)N2CCOCC2)ccc1N1CCOCC1 | -27.3
C=CCOc1ccc(/C=C2\SC(=S)N(NS(=O)(=O)c3ccc(C)cc3)C2=O)cc1 | -3.29
CN1C(=O)c2cccc3c(S(=O)(=O)Nc4ccccc4F)ccc1c23 | -4.24

Source: PMC4336329 (PLoS ONE, 2015)
